# Reference: PubChem BioAssay AID652106 (National Center for Advancing Translational Sciences (NCATS), 2013)
# Out of some 370,000 compounds screened, about 500 (0.14%) were called active. The inconclusive results got no clear call from the source; some entries with a clear call stand among them for comparison. Calls come from the whole dose curve; as a rule, active = well fitted activation curve with a large enough effect; inconclusive = small, poorly fitted or top-dose-only effect; inactive = no such curve, though single readings can be large or run the other way. Potencies of inconclusive entries are left out as doubtful fits.
# Test: qHTS of alpha-syn Inhibitors; note: nearly all actives have a fitted effect of over 65% in size; for growth rescue (activation): % of control where 0% means no effect
# Settings: Yeast expressing alpha-synuclein, BacTiter-Glo, 24 h; Potency: growth rescue unless noted; growth rescue (activation): at 46.1 µM (top of the series) unless noted
# Method in brief: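 Screening used galactose-induced yeast with toxic alpha-synuclein levels, exposed to compound for 24 hr at 30 deg C. Cell growth, read with BacTiter-Glo luminescence, gave the measured signal.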
# Potency is the fitted concentration of half-maximal effect; tags give direction and shape of the fitted curve.
Compound,Potency,growth rescue (activation)
O=S(=O)(Oc1ccc(Cl)cc1)c1cccc2cccnc12,"inconclusive [activator, partial curve]",–
O=C(OCC(=O)N1CCc2ccccc21)c1cccnc1,"inconclusive [activator, single point]",–
CC(C)CNC(=S)NC(=O)c1ccc(F)cc1,inactive,–
CC(=O)c1ccc(OCc2c(-c3ccccc3)nnn2CC(=O)NS(=O)(=O)c2ccc(C)cc2)cc1,"inconclusive [activator, single point]",–
Cc1ccc(/C=C/C(=O)c2ccc(N3CCOCC3)cc2)s1,inactive,–
CC(C#N)(CCc1ccccn1)CCc1ccccn1,inactive,–
NC(=O)c1ccccc1OCCOc1ccc(Br)cc1,"inconclusive [activator, single point]",–
CC1(C)CC=CC(COC(=O)c2ccccc2C(=O)O)C1 (stereo unspecified),"inconclusive [activator, single point]",–
CCCCC(=O)NNC(=S)NC(=O)c1ccc(C)cc1,active: 3.55 µM,–
COc1ccc(C2Nc3ccccc3C(=O)N2Cc2ccco2)cc1COc1c(C)cccc1C (stereo unspecified),inactive,–
OC(CN1CCN(Cc2ccccc2)CC1)c1ccc(Br)cc1 (stereo unspecified),inactive,–
CCC1(c2ccc(F)cc2)NC(=O)N(CC(=O)Nc2ccccc2Cl)C1=O (stereo unspecified),"inconclusive [activator, single point]",–
O=C1c2ccccc2C(=O)N1C1C=CC=CC=C1,"inconclusive [activator, single point]",–
Cc1ccc(OCc2nc(-c3ccccn3)n[nH]2)cc1,"inconclusive [activator, single point]",–
Cc1ccc(C)c(S(=O)(=O)N(C)Cc2cccs2)c1,"inconclusive [activator, partial curve]",–
CCC1CCCCN1C(=S)NC(=O)c1cc(Br)ccc1Cl (stereo unspecified),"inconclusive [activator, single point]",–
Cc1ccc(-c2cc(C(=O)OCC(=O)Nc3cc(C)on3)c3ccccc3n2)c(C)c1,inactive,–
O=C(N1CCCC1)N1CCN(S(=O)(=O)c2ccccc2)CC1,"inconclusive [activator, single point]",–
CCCc1[nH]nc2c1C(c1ccc(Br)s1)C(C#N)=C(N)O2 (stereo unspecified),"inconclusive [activator, single point]",–
Cc1cccc(NC(=O)c2nc[nH]c2C(=O)N[C@@H](CC(C)C)C(=O)OCc2ccccc2)c1,"inconclusive [activator, single point]",–
Cc1cccc(C)c1NC(=O)CCSc1nc(-c2ccc3c(c2)OCO3)cc(C(F)(F)F)n1,inactive,–
Cn1cc2ccc(N)cc2n1,"inconclusive [activator, partial curve]",–
COc1ccc(/C=C/C(=O)O)cc1COc1cccc(C)c1,"inconclusive [activator, full curve, poor fit]",–
CC(C)(C)C(=O)Nc1cccc(C(=O)Nc2cc(C(=O)O)cc(C(=O)O)c2)c1,"inconclusive [activator, single point]",–

Compound,Potency,growth rescue (activation)
CC(C)(C)c1ccc(CC(=O)N2CCC2(C)C(=O)Nc2cccc3ccccc23)cc1 (stereo unspecified),"inconclusive [activator, single point]",–
CCC(C)(C)n1nnnc1CN(Cc1ccc(Cl)cc1)Cc1ccco1,"inconclusive [activator, single point]",–
COc1ccc([C@H]2CC(=O)C=C(c3cc(C)ccc3F)C2)cc1,"inconclusive [activator, single point]",–
O=C(c1ccc(Br)cc1)c1cc([N+](=O)[O-])ccc1N1CCOCC1,"inconclusive [activator, single point]",–
CCc1c(C)nc(Nc2nc(C)c3ccc(OC)cc3n2)[nH]c1=O,"inconclusive [activator, single point]",–
CCOC(=O)Cc1c(C)c2c(O)cc(O)cc2oc1=O,inactive,–
COCCN1C(=O)C(=O)/C(=C(/O)c2ccc(C)cc2)C1c1ccccn1 (stereo unspecified),"inconclusive [activator, single point]",–
CCN(CC)CCn1c(N)c(S(=O)(=O)c2ccccc2)c2nc3ccccc3nc21,"inconclusive [activator, single point]",–
Cc1nc2ccc(NC(=O)COc3cccc(F)c3)cc2s1,inactive,–
O=C(/C=C/c1ccccc1)Nc1ncn[nH]1,"inconclusive [activator, partial curve]",–
O=C(C=Cc1ccccn1)c1ccccc1O,–,inconclusive: -45.8% [activator]
Cc1nc([N+](=O)[O-])cn1CC(=O)c1ccc2c(c1)OCCO2,inactive,–
COc1cccc(/C=C/c2ccc3cccc(O)c3n2)c1,active: 17.8 µM,–
CCCOc1ccc(/C(O)=C2/C(=O)C(=O)N(CCCn3ccnc3)C2c2cccs2)cc1 (stereo unspecified),"inconclusive [activator, single point]",–
C[C@@]12CCC3[C@@](CCC4[C@@]3(C)CCC[C@@]4(C)C(=O)O)(CC1=O)C2 (stereo partly specified),inactive,–
O=S(=O)(Nc1cc(Br)cc2cccnc12)c1cccc2ccccc12,active: 25.1 µM,–
CCc1nc2ccccc2c(C(=O)OCC(=O)N(C)Cc2ccccc2)c1C,inactive,–
C=CCN1CN(S(=O)(=O)c2cccc(Cl)c2)c2nc3ccccc3nc21,"inconclusive [activator, single point]",–
COCCCNC(=O)c1ccc2c(c1)N=C(C)c1c(C)ccc(C)c1S2,"inconclusive [activator, partial curve, poor fit]",–
S=C(NCc1ccc2[nH]c3c(c2c1)CCCC3)Nc1ccccc1,"inconclusive [activator, single point]",–
Cc1ccc(OCC(=O)Nc2ccc(Cl)c(-c3nc4ncccc4o3)c2)cc1C,"inconclusive [activator, full curve, poor fit]",–
Cc1ccc(Nc2n[nH]c(C)c2[N+](=O)[O-])c(C)c1,inactive,–
CCCn1nnnc1NC(=O)c1ccc(C)cc1Cl,"inconclusive [activator, partial curve]",–
Cc1ccc(NC(=O)CNC(=O)Cn2cnc3sc(C)c(C)c3c2=O)cc1F,"inconclusive [activator, single point]",–

Compound,Potency,growth rescue (activation)
CCOC(=O)C1=NNC(C(=O)c2ccc(C)cc2)C1c1ccc(OC)cc1 (stereo unspecified),inactive,–
CC1CCC(NC(=O)CN2C(=O)NC3(CCCCC3C)C2=O)CC1 (stereo unspecified),"inconclusive [activator, single point]",–
Clc1nc(-c2ccccn2)nc2scc(-c3ccccc3)c12,"inconclusive [activator, single point]",–
CCc1ccc(-c2cc(C(F)(F)F)n3nc(C(=O)Nc4c(C)nn(Cc5ccc(F)cc5)c4C)cc3n2)s1,"inconclusive [activator, single point]",–
O=C(NC12CC3CC(CC(C3)C1)C2)N1CCCC(CO)C1 (stereo unspecified),"inconclusive [activator, single point]",–
CCC(C(=O)NCCc1ccccc1)c1ccccc1 (stereo unspecified),"inconclusive [activator, single point]",–
CCOC(=O)c1cnc(-n2nc(C)cc2C)[nH]c1=O,active: 22.4 µM,–
CC(=O)Nc1ccc(OCC(O)Cn2c3ccccc3c3ccccc32)cc1 (stereo unspecified),"inconclusive [activator, single point]",–
CCc1ccc2oc(-c3ccc(OC)cc3)cc(=Nc3c(C)n(C)n(-c4ccccc4)c3=O)c2c1,inactive,–
CS(=O)(=O)c1ccc(Cl)c(NC(=O)COC(=O)c2c(Cl)cccc2Cl)c1,"inconclusive [activator, single point]",–
C=CCn1c(COc2ccccc2)nnc1SC(C)C(=O)N/N=C/c1cc(Cl)ccc1O (stereo unspecified),"inconclusive [activator, single point]",–
CN(C)C(=O)/C=C\c1cn(-c2ccccc2)nc1-c1ccc2c(c1)OCCO2,inactive,–
COCCCNc1nc2ccccc2nc1NS(=O)(=O)c1cccc(C)c1,inactive,–
Cc1ccsc1C(=O)OCC(=O)NCCC1=CCCCC1,inactive,–
Cc1c(Cc2ccccc2)c(=O)oc2c(C)c(OC(C)C(=O)NCC3CCC(C(=O)O)CC3)ccc12 (stereo unspecified),inactive,–
CC(=O)c1ccc(N2CCN(S(=O)(=O)c3cccc4nonc34)CC2)cc1,"inconclusive [activator, partial curve]",–
Cc1ccc(S(=O)(=O)N(C(=O)c2ccncc2)c2ccc(OC(=O)c3ccncc3)cc2)c(C)c1,"inconclusive [activator, partial curve]",–
CC(C)c1cc(C(C)C)c(S(=O)(=O)NC(c2ccccn2)C23CC2C3)c(C(C)C)c1 (stereo unspecified),"inconclusive [activator, single point]",–
CC(C)n1ncc2c(C(=O)NCC(=O)Nc3ccccc3Br)cc(C3CC3)nc21,"inconclusive [activator, single point]",–
O=C(CCc1ccccc1)n1nc(-c2ccco2)nc1SCc1ccccc1,"inconclusive [activator, single point]",–
CC12CCC(C(=O)N(CSC(=S)N/N=C\c3ccccc3O)C1=O)C2(C)C (stereo unspecified),"inconclusive [activator, single point]",–
O=C(c1ccc2nc(Cc3cccc(Cl)c3)oc2c1)N1CCOCC1,inactive,–
CCc1nc2c(OCc3c(C)noc3C)cccn2c1N(C=O)Cc1ccccc1,"inconclusive [activator, single point]",–
